± gives the standard deviation of the averaged measurements. Some of the results follow.
Each sequence was assayed on PfAP2-EXP AP2 domain (GST-tagged) (assay: gcPBM binding intensity (ln(normalized median fluorescence intensity)); higher = stronger DNA binding).
Method in brief: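 Alexa488 anti-GST antibody, scanned at 488 nm, detected GST-tagged P. falciparum DNA-binding domains that had been expressed in E. coli and incubated for 1 h on an Agilent 4 × 180k array. The array carried primer-extended double-stranded 36-bp intergenic genomic probes and negative controls. Binding intensity is the highest Masliner-normalised natural-log median intensity across replicate spots of either orientation of each probe.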

Row | Sequence | gcPBM binding intensity (ln)
1 | AATATTATAAATGTCACACATATATTCAAATATATA [CACACA_site4736] | 8.29 ± 0.38
2 | ATGAACATATCAATTCTCAAAATAGGATGAGAGCAT [CACACA_negctrl_site230] | 8.55 ± 0.37
3 | GTGGAACATATGAACTCACACACATTTTCACTTAAA [CACACA_site3683] | 8.27 ± 0.33
4 | ATATAAGGATTAATATGTACATATATATATATATTT [XGTACX_site1390] | 8.41 ± 0.31
5 | TTTGTATATTATTTTAGTACATAACATTGAAGATAT [XGTACX_site6680] | 8.47 ± 0.3
6 | TATTTTGAAACTAAAAGACATAGAGAAAACAAAAAA [CACACA_negctrl_site1306] | 8.91 ± 0.54
7 | GACATTGATACCAGTAGTACCTATAGATGTTTGTTT [XGTACX_site5736] | 8.66 ± 0.35
8 | TTATGGAATAATCACGTACACACAAGAAAAAAAAAA [CACACA_site526] | 8.78 ± 0.44
9 | ATTATATATAAGAAGAGTACTGAATATGTGCAATAT [XGTACX_site4471] | 9.35 ± 0.071
10 | TTATAGAAAATGGAATAGAATGGAATGGAAGAAATA [CACACA_negctrl_site1086] | 9.07 ± 0.55
11 | TATATACACCCACATACACACAAATAAAAAAACACC [CACACA_site3414] | 9.24 ± 0.5
12 | ATATTAGTAACACAGACACACAAAAAAAAAAAAAAA [CACACA_site2176] | 8.31 ± 0.66
13 | TTTTTCTCTTTAAGGTGTACAATAATACAGTAACCA [XGTACX_site300] | 8.57 ± 0.28
14 | TTGTACGCAAAAAAAAAAAAAAAAAAATTAAAATTT [TGCATGCA_negctrl_site586] | 8.04 ± 0.26
15 | TTTTTTATTATCAAAACATGCATTTTTTAAATGGAA [TGCATGCA_site557] | 8.43 ± 0.3
16 | AGGAAAATACCTTAATGTACATAGAAAAGTAACATT [XGTACX_site8011] | 8.62 ± 0.42
17 | CACTTAACACAAGAGTGTACACATATATATATATAT [XGTACX_site686] | 10.1 ± 0.53
18 | GGGAAATATTGAAACACACACGAACGCACGTATTTC [CACACA_site6258] | 8.46 ± 0.36
19 | ATAATATTTTCTTCTTATTGAATGCTTTAAATTTAC [CACACA_negctrl_site1273] | 8.68 ± 0.53

Row | Sequence | gcPBM binding intensity (ln)
20 | TTAAGAAGTTCTAAATGTACATACATAACCACGTTA [XGTACX_site7514] | 8.41 ± 0.35
21 | TTAAACCGTGGGAGCACACACACACCCCCACCCATA [CACACA_site331] | 9.3 ± 0.45
22 | ACAAATAAGTTTTGTAGTACTGTGTATATATATATA [XGTACX_site6901] | 9.97 ± 0.3
23 | TACTCAAAAATTAATTAGCATAATATATATAAAAAT [GTGCAC_negctrl_site613] | 8.43 ± 0.38
24 | GCATAAGAAAATAATTGTACAATTTACATACATAAA [XGTACX_site8286] | 8.66 ± 0.45
25 | TATATATGTATATATATAAATATATATATATATATA [TGCATGCA_negctrl_site605] | 10.1 ± 0.26
26 | TAATGAAATATACAGAGTACATTCTGTATATAGGAT [XGTACX_site7691] | 8.46 ± 0.3
27 | TATAAATATATATACACACACACATTAATACATATA [CACACA_site3488] | 8.65 ± 0.48
28 | CTTTTATTAAAATTCACACACATAAACTTTTATAAA [CACACA_site7027] | 8.21 ± 0.38
29 | AATATATACAATATATGTACATATATATACACATAT [XGTACX_site4190] | 8.62 ± 0.31
30 | ACAATAAAAATTTATGCATGTGAATTGAAAAAAAAA [TGCATGCA_site1037] | 8.7 ± 0.31
31 | CTTATATATATATCATGTACTTATGTATTTAAGAAT [XGTACX_site3307] | 8.46 ± 0.34
32 | AAATAAAACAAACACACACACACATACACAAAAAAA [CACACA_site3849] | 8.61 ± 0.61
33 | GTTATTGAAAAAATAGTGCAATATAACAAAGTAAAA | 8.95 ± 0.23
34 | TATATATTTCGGTGTGCACACTTTTTATTTTTATCC [CACACA_site1726] | 9.13 ± 0.33
35 | TATATATATATATGTACACACATATATACCTTTCAT [CACACA_site2679] | 10.1 ± 0.27
36 | GGAATGTAGGGTTTTACCAAAATAAAAATAACCATA [XGTACX_negctrl_site492] | 8.6 ± 0.35
37 | TAATTTCTTATGTATTGTACAAATAATATATGATAT [XGTACX_site611] | 8.48 ± 0.35
38 | ATAAAATACCTATAAACACACATATAAACAGACATA [CACACA_site7213] | 8.81 ± 0.52

Row | Sequence | gcPBM binding intensity (ln)
39 | ATTTCACAGAAACACACACACAATATATTTCCTTTT [CACACA_site3904] | 8.49 ± 0.54
40 | GAAAAATGAAGAGAACAAAATTTTATGATATATATA [GTGCAC_negctrl_site231] | 8.96 ± 0.35
41 | TTTCATAAATAAATATGTACATAATTAATAATAAAT [XGTACX_site5882] | 8.68 ± 0.39
42 | CCTTGAACCCCACTAACACACACACCCACGCTCAGA [CACACA_site8976] | 8.7 ± 0.54
43 | ATTACAAAAAAAAAAAAAAAAAAAAAAAAAAAAAAA [CACACA_negctrl_site448] | 7.95 ± 0.33
44 | TATACATAGATATATACACACATATATTTATATACA [CACACA_site6328] | 8.26 ± 0.38
45 | ATATGTATATATATTTGTACGTAAAATGAAATCTAA [XGTACX_site213] | 9.19 ± 0.45
46 | AAATAGTATATAATATGTACATACATAAAAATGTAT [XGTACX_site3524] | 8.36 ± 0.3
47 | ACCTATGTATATTATACACACTCCAAACTATTATTT [CACACA_site1817] | 8.82 ± 0.44
48 | TTTTGTTTGTTCGTGACTACATTATGTTGTAAATAC [CACACA_negctrl_site604] | 8.78 ± 0.38
49 | AAAGGTAAGCAGAATAGTACAGAAGAAAAAATATTT [XGTACX_site2941] | 8.97 ± 0.57
50 | ATCAAAAAAAAAAAATTTTTTTTTTTGTTTGTTTCC [CACACA_negctrl_site1042] | 8.24 ± 0.58
51 | TATCCTATAAATAATACATGCATATATATATATATT [TGCATGCA_site638] | 8.64 ± 0.35
52 | CAACATTTGAGACACACACACATACAAACAAACAAA [CACACA_site7538] | 8.78 ± 0.53
53 | CCAATAATATATAGAAGTACAGAAAAAAAAAAAAAA [XGTACX_site2049] | 8.4 ± 0.57
54 | AAGAAAATTAAATTAACACACATAAATATGTAAATA [CACACA_site6882] | 8.24 ± 0.26
55 | CCCTCTTCTCTCATATCACACATGTCATCCTTATCC [CACACA_site5078] | 9.15 ± 0.42
56 | ATCAAAATGTTAAAGATACACACCTAACAAACACAA [CACACA_site955] | 8.74 ± 0.42

Reference: the supplement of paper PMC11417369
